# Laboratory results reported in PubChem BioAssay AID485367 (National Center for Advancing Translational Sciences (NCATS), 2010).
# Screen size: about 330,000 compounds; about 560 (0.17%) were called active. The inconclusive results got no clear call from the source; some entries with a clear call stand among them for comparison. Calls come from the whole dose curve; as a rule, active = well fitted inhibition curve with a large enough effect; inconclusive = small, poorly fitted or top-dose-only effect, or effect the other way; inactive = flat fitted curve, though single readings scatter. Potencies of inconclusive entries are left out as doubtful fits.
# Target: ATP-dependent 6-phosphofructokinase (Trypanosoma brucei brucei) (UniProt O15648)
# Assay: qHTS Assay to Find Inhibitors of T. brucei phosphofructokinase; note: nearly all actives have a fitted effect of over 60% in size
# Settings: T. brucei PFK, ADP-Glo luminescence; activity, negative = inhibition: at 57.5 µM (top of the series)
# Description: NIH Molecular Libraries Probe Production Network [MLPCN] NIH Chemical Genomics Center [NCGC] Grant: 1 R03 MH092153-01 PI Name: Malcolm Walkinshaw, University of Edinburgh NCGC Assay Overview: Various species of the protozoan family Trypanosomatidae are responsible for a range of serious human diseases in tropical and subtropical areas of the world. […] Many of the disorders caused by trypanosomatids are fatal if left untreated, but most currently used drugs are inefficient and toxic. […] Oxidative metabolism involving the mitochondrial tricarboxylic acid cycle and oxidative phosphorylation are repressed in these parasites, and recent RNA interference (RNAi) experiments have shown that even partial depletion of certain individual glycolytic enzymes can lead to the death of cultured parasites. One such glycolytic enzyme, phosphofructokinase (PFK), catalyzes the formation of fructose-1,6-bisphosphate (F1,6BP) and ADP from fructose-6-phosphate (F6P) and ATP, and in many metabolic circumstances makes an important contribution to the control of flux through the glycolytic pathway. As a specific glycolytic target, PFK is particularly attractive as it catalyzes the first irreversible step in glycolysis, and structural and kinetic studies have shown very substantial and essential differences from corresponding host enzymes, allowing for the discovery of parasite-selective inhibitors. The goal of this screen is to find small-molecule inhibitors of T. brucei PFK using a biochemical assay that measures PFK activity as a function of ADP production. A luminescence-based assay for T. brucei PFK activity has been developed which uses luciferase to detect production of ADP. Traditional luciferase-based nucleotide detection reagents rely on ATP production as a direct substrate for the luciferase reaction; however, PFK catalyzes the transfer of a phosphate from ATP to F6P, resulting in the net depletion of ATP. To directly measure the ADP product of the PFK reaction, we used the ADP-Glo detection kit (Promega), which utilizes two separate reactions to 1) deplete all remaining uncatalyzed ATP and 2) convert all remaining ADP to ATP, which is then detected through a traditional luciferase-coupled reaction. Compounds were screened as a concentration-titration series that ranged from 57 uM to 0.7 nM.
# NCGC Assay Protocol Summary: NCGC Assay Protocol Summary: Substrate buffer was dispensed into white, solid 1536-well plates at 3uL/well in 0.1M triethanolamine (TEA) buffer, pH 8.0, containing final concentrations of 5 mM MgCl2, 0.01% Tween20, 0.5 mM fructose-6-phosphate (F6P) and 0.1mM ATP. Then, 23 nL of compounds or DMSO were delivered to each well using a pin tool. One uL T. brucei PFK (0.1M TEA, 0.01% Tween20, 0.1% bovine serum albumin (BSA) and 1.25nM PFK, final concentrations) was then dispensed, and plates were incubated at room temperature for 45 min. The luminescent detection reagent, ADP-Glo (Promega), was then added in two steps: the first reagent, ADP-Glo (which converts remaining uncatalyzed ATP), was added at 2.5uL/well and incubated for ten minutes at room temperature, and the second component, Kinase Detection reagent (which converts ADP to ATP as a substrate for luciferase-based luminescence), was added immediately after at 5uL/well, followed by one final ten minute room temperature incubation. The plates were measured on a ViewLux plate reader for luminescent signal using a clear filter with a one second exposure. The %Activity was determined from the corrected luminescence values. As no specific T. brucei PFK inhibitors have been identified in the literature, 1x (1.25nM) and 0x PFK enzyme controls (untreated) were included to normalize %Activity of identified inhibitors; 0x enzyme values corresponded to 100%Activity (full inhibition), while 1x PFK enzyme values were used to normalize 0%Activity (no inhibition). Concentration-response curves were fitted to the signals arising from the resulting luminescence. […]
# Potency is the fitted concentration of half-maximal effect; tags give direction and shape of the fitted curve.
# Sequence of UniProt O15648 (O15648 whole entry, looked up): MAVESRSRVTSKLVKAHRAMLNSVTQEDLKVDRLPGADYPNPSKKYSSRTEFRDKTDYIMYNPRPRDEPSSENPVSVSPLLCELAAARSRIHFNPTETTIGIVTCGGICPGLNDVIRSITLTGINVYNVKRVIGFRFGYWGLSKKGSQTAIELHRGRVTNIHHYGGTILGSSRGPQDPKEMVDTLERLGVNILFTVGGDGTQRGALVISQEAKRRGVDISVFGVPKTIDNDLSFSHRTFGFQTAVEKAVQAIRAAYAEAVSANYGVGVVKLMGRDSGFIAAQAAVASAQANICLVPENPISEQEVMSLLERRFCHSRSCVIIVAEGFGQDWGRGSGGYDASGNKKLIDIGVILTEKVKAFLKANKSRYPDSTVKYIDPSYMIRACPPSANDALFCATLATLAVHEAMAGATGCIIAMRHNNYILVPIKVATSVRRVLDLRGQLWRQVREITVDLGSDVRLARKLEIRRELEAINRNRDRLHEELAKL
SMILES,"activity, negative = inhibition",Potency
COc1ccc(C[C@H]2CN3C(=NC[C@@H]3Cc3ccc(O)cc3)N2C[C@H](C)NC(=O)c2ccc(C)c(Br)c2)cc1,inactive: 4.28%,
Cn1nnnc1Sc1ncnc2scc(-c3ccccc3C(F)(F)F)c12,,"inconclusive [falling, single point]"
C=CCn1c(=N)n(CC(=O)c2ccc(Cl)cc2)c2ccccc21,inactive: -0.106%,
O=C(NNC(=O)C1[C@H]2CCCC[C@@H]12)NC1CCCCC1 (stereo not given in full),,"inconclusive [falling, single point]"
C/C(CC(=O)Nc1ccc2c(c1)OCCO2)=N\NC(=O)COc1ccc(C)cc1,inactive: 5.2%,
CCn1c(SCC(=O)OC)nc2sc3c(c2c1=O)CCC3,,"inconclusive [falling, single point]"
O=C(/C=C/Nc1ccccc1F)c1cccs1,,"inconclusive [falling, partial curve, poor fit]"
CS(=O)(=O)N1CC(C(=O)NN)Oc2ccc(Cl)cc21 (stereo not given),,"inconclusive [falling, single point]"
C/C=C\C=C/C(=O)Nc1cccc(C2=NOC3(C2)C[C@@H](C(N)=O)N(C(=O)/C=C/C=C\C)C3)c1 (stereo not given in full),,active: 5.36 µM
Cc1cc(NS(=O)(=O)c2ccc(NC(=O)COc3ccccc3Cl)cc2)no1,,"inconclusive [falling, single point]"
O=C(Nc1ccc(F)cc1)Oc1ccc[nH]c1=O,inactive: -9.6%,
Cc1oc(-c2ccccc2Cl)nc1CSCC(=O)O,,"inconclusive [activator, single point]"
COc1ccc(NC(=O)N2CCN(c3cccc(C(F)(F)F)c3)CC2)cc1OC,,"inconclusive [falling, single point]"
Cc1ccc(NC(=O)CNc2cccc(Br)c2)cc1S(=O)(=O)N1CCOCC1,,"inconclusive [falling, single point]"
COc1ccc(-c2[nH]ncc2CNCc2cc(C)n(C)n2)c(F)c1,inactive: -1.18%,
Cc1ccc(/C=C/C(=O)NCc2ccccn2)o1,,"inconclusive [falling, single point]"
CC1C(=O)OC2C1CCC1(C)CCC(=O)C(C)C21 (stereo not given),,"inconclusive [falling, partial curve]"
COc1ccc(OCC(=O)OCCN2C(=O)c3ccccc3C2=O)cc1,,"inconclusive [falling, single point]"
Cc1c(O)cc2c(c1O)C(=O)CC(c1ccc(O)cc1)O2 (stereo not given),inactive: 5.43%,
Cc1ccc(/C=C(\CCC(=O)O)c2nc3ccccc3s2)cc1[N+](=O)[O-],inactive: 15.1%,
O=C(O)CCCNC(=O)c1ccc(NC(=O)Cc2ccc(Cl)cc2)cc1,,"inconclusive [falling, partial curve]"
Cn1c(N=Nc2ccc(N3CCOCC3)cc2)[n+](C)c2ccccc21,,"inconclusive [falling, partial curve]"
COc1ccc(CCNC(=O)CCC(=O)N2CCOc3ccc(Cl)cc32)cc1OC,,"inconclusive [falling, single point]"
COc1ccc(S(=O)(=O)N2CCOC2CNC(=O)C(=O)NCc2ccc(F)cc2)cc1 (stereo not given),,"inconclusive [falling, partial curve]"

SMILES,"activity, negative = inhibition",Potency
NC(=O)c1ccccc1N/C=C1\CCCCC1=O,,"inconclusive [activator, single point]"
O=C(O)Cc1ccc2sc(-c3ccccc3)nc2c1,inactive: -2.25%,
O=C(CCS(=O)(=O)c1ccccc1)Nc1ccc(-c2nc3ccccc3s2)cc1,inactive: 4.83%,
COc1ccc(Br)cc1C1CC(=O)N2CN(Cc3ccccc3)CSC2=C1C#N (stereo not given),inactive: 0.861%,
CN(C(=O)CN(CCO)CC(=O)N(C)C(C)(C)Cc1ccccc1)C(C)(C)Cc1ccccc1,,"inconclusive [falling, single point]"
COCCn1c(SCC(=O)NCc2ccco2)nc2cccnc21,,"inconclusive [falling, single point]"
COc1cc(CNCCc2ccc(F)cc2)ccc1OCc1ccc(Cl)nc1,,"inconclusive [falling, single point]"
CN(C)c1ccc(NC(=O)CSCc2nc3c(nnn3Cc3ccc(F)cc3)c(=O)[nH]2)cc1,,"inconclusive [falling, single point]"
COc1ccccc1N1C(=O)CC(N2CCN(c3ccc(Cl)cc3)CC2)C1=O (stereo not given),inactive: 0.0485%,
O=C(CSc1nnc(-c2ccco2)c(-c2ccco2)n1)Nc1ccccc1,,"inconclusive [falling, single point]"
Cc1cccc(/C(N)=N/OC(=O)c2ccoc2C)c1,,"inconclusive [falling, partial curve, poor fit]"
Cc1ccc(S(=O)(=O)N2CCOCC2)cc1C(=O)Nc1ccc(-c2cn3ccsc3n2)cc1,inactive: 6.89%,
O=C(CSc1nnc(-c2ccc(Br)cc2)o1)N1CCN(C(=O)c2ccco2)CC1,inactive: -0.0486%,
CN(c1ccc(F)cc1)S(=O)(=O)c1ccc(Cl)c(C(=O)NCc2ccco2)c1,,"inconclusive [falling, single point]"
S=c1[nH]cc(-c2ccccc2)n1-c1ccccc1,,"inconclusive [falling, partial curve]"
CCOC(=O)Cc1c(C)nc2c(-c3ccc(Cl)cc3)c(C)nn2c1C,,"inconclusive [falling, single point]"
O=C1NN(c2cccc(Br)c2)C(=O)/C1=C\c1ccccc1,,"inconclusive [activator, single point]"
COC(=O)[C@@]12CCCN1[C@H](c1ccc(-c3ccccc3)cc1)[C@@H]1C(=O)N(C)C(=O)[C@@H]12,,"inconclusive [activator, single point]"
O=C(Nc1ccnc(-c2cccnc2)n1)c1cccs1,inactive: 3.76%,
Cc1ccc(S(=O)(=O)NC(C)(C)CN2CCC(Cc3ccccc3)CC2)cc1,inactive: 1.36%,
CN(CC(=O)Nc1c(Cl)cccc1Cl)C(=O)c1cccc(-n2cccc2)c1,,"inconclusive [falling, partial curve]"
O=S(=O)(NC1=NCCCCC1)c1ccc(F)cc1F,,"inconclusive [falling, single point]"
O=C(O)CCc1ccc(-c2cccs2)n1Cc1ccco1,,"inconclusive [falling, single point]"
COc1ccc(OCC(=O)OCC(=O)Nc2ccc3[nH]c(=O)[nH]c3c2)cc1,,active: 30.1 µM

SMILES,"activity, negative = inhibition",Potency
CN(C(=O)C1CCC(=O)N(Cc2cccc(F)c2)C1)C1CCCCC1 (stereo not given),inactive: -5.33%,
Cc1nc2c(C)cccn2c1C(=O)c1ccccc1,,"inconclusive [falling, single point]"
CCN1CCN(CCCOc2ccccc2-c2ccccc2)CC1,,"inconclusive [falling, single point]"
O/C=c1\ccc2cccc3nc(C(F)(F)F)nc1c23,,"inconclusive [activator, partial curve]"
O=C(O)C1=CC(=C(c2ccc(O)c(C(=O)O)c2)c2ccc(O)c(C(=O)O)c2)C=CC1=O,,"inconclusive [falling, full curve, poor fit]"
CN([C@@H](Cc1ccc(OS(=O)(=O)c2cccc3cnccc23)cc1)C(=O)N1CCN(c2ccccc2)CC1)S(=O)(=O)c1cccc2cnccc12,inactive: 0.667%,
CC(C#N)Sc1nnc(-c2ccccc2F)n1C1CC1 (stereo not given),inactive: 8.31%,
O=C(NCc1cccnc1)c1cc(Sc2ccccc2Cl)nc2ccccc12,,"inconclusive [activator, single point]"
O=C(NCc1ccc(F)cc1)c1nc(-c2cccs2)no1,,"inconclusive [falling, single point]"
O=C(CSCc1ccccc1)NNc1c(F)c(F)cc(F)c1F,,"inconclusive [falling, single point]"
O=C(Nc1ccc(F)c(Cl)c1)NC1CC1,,"inconclusive [falling, single point]"
C=CCN1C(=O)/C(=C2/Sc3ccccc3N2CCCS(=O)(=O)O)SC1=S,,"inconclusive [activator, partial curve]"
O=C1C=CC(=O)N1c1cccc(-c2ccccc2)c1,,"inconclusive [falling, single point]"
CN(CCOC(=O)/C=C/c1ccco1)Cc1ccccc1,,"inconclusive [falling, single point]"
COc1ccc(OC)c(CN2CCC(CNC(=O)Nc3cccc(Cl)c3)CC2)c1,,"inconclusive [falling, partial curve]"
Cc1noc(C)c1CSc1nc2ccccc2c(=O)n1-c1ccc(F)cc1F,,"inconclusive [falling, single point]"
CCOc1ccc(-n2cc(-c3ccc(OC)c(OC)c3)[nH]c2=S)cc1,,"inconclusive [falling, full curve]"
CCn1c(COc2ccccc2C)nnc1SCC(=O)O,inactive: 0.624%,
COc1ccc(NC(=O)CSc2nnc(Cc3ccccc3)c(=O)n2N)c(OC)c1,,"inconclusive [activator, partial curve]"
CCN(CC(=O)NC(=O)NCc1ccco1)Cc1nc2ccccc2c(=O)[nH]1,,"inconclusive [falling, single point]"
CCOC(=O)NC1(Nc2ccc(Cl)cn2)Oc2ccccc2O1,,"inconclusive [falling, single point]"
Cc1cc(/C=C(/C#N)c2nc3ccccc3[nH]2)c(C)n1-c1cc(C(=O)O)cc(C(=O)O)c1,inactive: -29.3%,
